The list shows a part of the results.

The assay has as its system S. aureus RN4220. As to the kind of experiment: growth inhibition call (relative growth <= 0.2). The note with it: 50 µM.
In the case of `CO[C@H](CN(C)S(=O)(=O)c1cccc(Cl)c1)[C@H](C)CN([C@H](C)CO)S(=O)(=O)c1ccc(Cl)cc1`, the growth inhibition call is “inactive”.

Consider `C[C@@H]1CN([C@H](C)CO)C(=O)c2cc(NS(=O)(=O)c3cn(C)cn3)ccc2O[C@@H](C)CCCCO[C@@H]1CN(C)C`, for which the growth inhibition call was “inactive”.

For `CC(C)NCC(O)COc1cccc2[nH]c3ccccc3c12` (stereo not given), the growth inhibition call is “inactive”.

Take `CCCCn1c(N)c(N(CC)C(=O)Cc2ccc(S(=O)(=O)N3CCOCC3)s2)c(=O)[nH]c1=O`: the growth inhibition call was “inactive”.

In the case of `COC(=O)C1=C2CC[C@H](COC(=O)NCCCCCC(=O)NO)NC(=O)N[C@H](Cc3ccccc3)c3cn(nn3)C[C@@H](Cc3ccccc3)NC(=O)c3oc(c(C(=O)OC)c3C(=O)OC)CC[C@H](COC(=O)NCCCCCC(=O)NO)NC(=O)N[C@H](Cc3ccccc3)c3cn(nn3)C[C@@H](Cc3ccccc3)NC(=O)C(=C1C(=O)OC)O2`, the growth inhibition call is “inactive”.

As to `C[C@@H]1CCCCO[C@@H](CN(C)C(=O)CCC(F)(F)F)[C@H](C)CN([C@H](C)CO)C(=O)c2cc(NS(=O)(=O)c3ccc(F)cc3)ccc2O1`, the growth inhibition call is “inactive”.

As for `Cc1ccc(Oc2nnc(-c3cccs3)c3ccccc23)cc1`, the growth inhibition call is “inactive”.

For the compound `NCCCC(N)CC(=O)NC1CNC(=O)C(C2CC(O)NC(N)=N2)NC(=O)C(=CNC(N)=O)NC(=O)C(CO)NC(=O)C(CO)NC1=O.O=S(=O)(O)O` (stereo not given), the growth inhibition call is “inactive”.

With `OC[C@H]1O[C@H](n2cnc3cncnc32)[C@@H](O)[C@@H]1O`, the growth inhibition call was “inactive”.

On to `CC(C)N1C[C@@H](C)[C@H](CN(C)Cc2ccc(Oc3ccccc3)cc2)Oc2c(C(=O)Nc3ccncc3)cccc2C1=O`, for which the growth inhibition call was “inactive”.
